# Experimental data published in the antibiotic and cytotoxicity screens of Wong et al. (2023).
# This is one part of the list.
# What was measured:
# [1] = tested on: HSkMC (human skeletal muscle cells); assay: cytotoxicity call (relative viability < 0.9); conditions: 10 µM
# [2] = tested on: HepG2; assay: cytotoxicity call (relative viability < 0.9); conditions: 10 µM
# [3] = tested on: S. aureus RN4220; assay: growth inhibition call (relative growth <= 0.2); conditions: 50 µM
SMILES,cytotoxicity call [1],cytotoxicity call [2],growth inhibition call [3]
C[C@@H]1CN([C@@H](C)CO)C(=O)c2cc(NS(=O)(=O)c3cccs3)ccc2O[C@H]1CN(C)S(=O)(=O)c1ccc(F)cc1,inactive,inactive,inactive
CC(C)NC(=O)N(C)C[C@@H]1Oc2ccc(NS(=O)(=O)c3ccc(F)cc3)cc2C(=O)N([C@H](C)CO)C[C@@H]1C,inactive,inactive,inactive
Cc1noc(C)c1NC(=O)Nc1ccc2c(c1)C(=O)N([C@H](C)CO)C[C@@H](C)[C@H](CN(C)S(=O)(=O)c1cccs1)OCCCC[C@H](C)O2,inactive,inactive,inactive
CC(C)(C)OC(=O)NC(=NCCCn1cc(-c2cccc(/C=C/C(=O)NO)c2)nn1)NC(=O)OC(C)(C)C,inactive,inactive,inactive
C[C@@H]1CCCCO[C@H](CN(C)Cc2ccc(C(F)(F)F)cc2)[C@@H](C)CN([C@H](C)CO)C(=O)c2cc(NS(=O)(=O)c3cn(C)cn3)ccc2O1,inactive,inactive,inactive
C[C@H]1CN([C@@H](C)CO)C(=O)c2cc(C#CC3(O)CCCC3)cnc2O[C@@H]1CN(C)C(=O)Cc1ccncc1,inactive,inactive,inactive
Nc1cccc(Cn2cncn2)c1,inactive,inactive,inactive
Cc1ccc(S(=O)(=O)Nc2cccc3c2O[C@@H](CN(C)C(=O)Nc2ccc(C(F)(F)F)cc2)[C@H](C)CN([C@H](C)CO)C3=O)cc1,inactive,inactive,inactive
COc1ccc(NC(=O)Nc2ccc3c(c2)C(=O)N([C@H](C)CO)C[C@H](C)[C@@H](CN(C)C(=O)Nc2c(C)noc2C)OCCCC[C@@H](C)O3)cc1,inactive,inactive,inactive
CNC(=O)C[C@@H]1CC[C@@H]2[C@H](COc3ccc(NC(=O)c4ccc(C(F)(F)F)cc4)cc3C(=O)N2C)O1,inactive,inactive,inactive
C[C@H]1CCCCO[C@H](CN(C)Cc2ccc3c(c2)OCO3)[C@@H](C)CN([C@@H](C)CO)C(=O)c2cc(NC(=O)Nc3cccc4ccccc34)ccc2O1,inactive,active,inactive
C[C@H](CO)N1C[C@H](C)[C@@H](CN(C)Cc2ccc(C(=O)Nc3ccccc3N)cc2)Oc2ccc(NC(=O)Nc3ccc(F)cc3)cc2C1=O,inactive,inactive,inactive
Cn1c(=O)c2c(ncn2CC(=O)N2CCN(C(=O)c3ccco3)CC2)n(C)c1=O,inactive,inactive,inactive
CC(=O)c1ccc2ccccc2c1O,inactive,inactive,inactive
C[C@@H]1CCCCO[C@@H](CN(C)Cc2ccc(Cl)c(Cl)c2)[C@@H](C)CN([C@H](C)CO)C(=O)c2cc(NS(=O)(=O)c3ccc(F)cc3)ccc2O1,inactive,active,inactive
N=C(N)SCCN,inactive,inactive,inactive
COc1ccc(NC(=O)Nc2cccc3c2O[C@@H](CN(C)Cc2ccc(Cl)c(Cl)c2)[C@@H](C)CN([C@H](C)CO)C3=O)cc1,inactive,active,inactive
CC(=O)On1cc(F)c(=O)[nH]c1=O,inactive,active,inactive
C[C@@H]1CCCCO[C@H](CN(C)Cc2ccc(C(F)(F)F)cc2)[C@@H](C)CN([C@H](C)CO)C(=O)c2cc(NS(=O)(=O)c3cccs3)ccc2O1,inactive,inactive,inactive
C[C@H](CO)N1C[C@H](C)[C@@H](CN(C)Cc2cccc(C(=O)O)c2)Oc2ncc(C#CCN(C)C)cc2C1=O,inactive,inactive,inactive
CCCN(C)C[C@H]1OCCCC[C@@H](C)Oc2ccc(NC(=O)Nc3ccc4c(c3)OCO4)cc2C(=O)N([C@H](C)CO)C[C@@H]1C,inactive,inactive,inactive
COc1ccc(S(=O)(=O)N(C)C[C@@H]2Oc3ccc(NC(=O)Cn4cnnn4)cc3C(=O)N([C@@H](C)CO)C[C@@H]2C)cc1,inactive,inactive,inactive
C[C@@H]1CN([C@H](C)CO)C(=O)Cc2cc(NC(=O)Cn3cnnn3)ccc2O[C@H]1CN(C)C(=O)Nc1cccc2ccccc12,inactive,inactive,inactive
O=C(C[C@@H]1C[C@@H]2c3cc(NC(=O)C4CCOCC4)ccc3O[C@@H]2[C@@H](CO)O1)NCc1ccc(Cl)cc1,inactive,inactive,inactive
C[C@H]1CN([C@@H](C)CO)C(=O)c2cccc(NC(=O)c3cnccn3)c2O[C@H]1CN(C)C(=O)Nc1ccc(F)cc1,inactive,inactive,inactive
O=c1n(-c2ccc(F)cc2)nc2n1CCCN2,inactive,inactive,inactive
C[C@@H]1CCCCO[C@@H](CN(C)S(=O)(=O)c2cn(C)cn2)[C@@H](C)CN([C@H](C)CO)C(=O)c2cc(NS(=O)(=O)c3ccc(F)cc3)ccc2O1,inactive,inactive,inactive
C[C@H]1CCCCO[C@@H](CN(C)S(=O)(=O)c2ccccc2)[C@@H](C)CN([C@@H](C)CO)C(=O)c2cc(NC(=O)Nc3ccc(C(F)(F)F)cc3)ccc2O1,inactive,active,inactive
CC[C@@H](O)C#CCN1CCN(C)CC1,inactive,inactive,inactive
